Results as given in paper PMC4336329 (PLoS ONE, 2015).
The whole screen tested about 310,000 compounds, of which about 14,000 (4.5%) showed an effect of 50% or more. Effects have a minus sign here. The list shows a part of the results.

target: human ether-à-go-go-related gene (hERG) potassium channel (human, UniProt Q12809); test: primary screen, population patch clamp on CHO cells stably expressing hERG
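Further: peak tail current of the secondary pulse compared with the same well before compound.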

Sequence of human ether-à-go-go-related gene (hERG) potassium channel (Q12809 whole entry, looked up): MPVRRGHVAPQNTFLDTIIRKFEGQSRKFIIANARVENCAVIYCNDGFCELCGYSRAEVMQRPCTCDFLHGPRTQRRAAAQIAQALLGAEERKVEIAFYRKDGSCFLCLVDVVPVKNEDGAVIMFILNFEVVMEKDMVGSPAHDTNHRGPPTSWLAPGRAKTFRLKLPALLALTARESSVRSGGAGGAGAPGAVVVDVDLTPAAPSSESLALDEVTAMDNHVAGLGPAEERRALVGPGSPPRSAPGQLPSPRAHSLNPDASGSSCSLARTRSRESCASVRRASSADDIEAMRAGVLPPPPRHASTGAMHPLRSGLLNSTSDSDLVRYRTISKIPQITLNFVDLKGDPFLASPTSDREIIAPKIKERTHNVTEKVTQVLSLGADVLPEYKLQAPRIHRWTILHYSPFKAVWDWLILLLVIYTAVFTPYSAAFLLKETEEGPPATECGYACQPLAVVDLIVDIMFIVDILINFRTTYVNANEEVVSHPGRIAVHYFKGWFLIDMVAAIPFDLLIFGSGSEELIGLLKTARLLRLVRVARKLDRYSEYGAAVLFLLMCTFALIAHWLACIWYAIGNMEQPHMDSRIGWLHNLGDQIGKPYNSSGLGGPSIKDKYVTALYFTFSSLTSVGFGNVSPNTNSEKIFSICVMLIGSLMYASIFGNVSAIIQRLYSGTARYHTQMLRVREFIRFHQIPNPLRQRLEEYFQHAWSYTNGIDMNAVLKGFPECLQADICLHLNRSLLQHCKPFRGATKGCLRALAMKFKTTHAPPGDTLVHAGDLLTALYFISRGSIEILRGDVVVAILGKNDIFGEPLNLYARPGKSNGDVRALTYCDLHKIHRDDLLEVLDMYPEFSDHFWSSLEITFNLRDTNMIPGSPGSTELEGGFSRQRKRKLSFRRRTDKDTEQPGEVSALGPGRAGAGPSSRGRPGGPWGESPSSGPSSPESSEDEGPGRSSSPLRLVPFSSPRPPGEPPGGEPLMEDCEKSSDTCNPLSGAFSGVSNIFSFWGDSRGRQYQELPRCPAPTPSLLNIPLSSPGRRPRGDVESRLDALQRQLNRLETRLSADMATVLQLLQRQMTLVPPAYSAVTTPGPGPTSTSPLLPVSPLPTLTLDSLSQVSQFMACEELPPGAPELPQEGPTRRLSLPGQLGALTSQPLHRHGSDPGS

Q: For `CCOc1ccc(S(=O)(=O)N2CCC(C(=O)Nc3cc(S(C)(=O)=O)ccc3Cl)CC2)cc1`, which “hERG current change (%, negative = inhibition) at 10uM” value is on record?
A: -28.5%

Q: How did the “hERG current change (%, negative = inhibition) at 10uM” value turn out when `CN(CC(=O)Nc1ccc(Cl)cc1)C(=O)COc1ncnc2ccccc12` was run?
A: -8.52%

Q: For `COc1ccc(NS(=O)(=O)c2ccc(-c3cnc(C4CC4)o3)cc2)cc1OC`, which “hERG current change (%, negative = inhibition) at 10uM” value is on record?
A: 14.6%

Q: For `N#Cc1c(NC(=O)CCCl)sc2c1CCCCC2`, which “hERG current change (%, negative = inhibition) at 10uM” value is on record?
A: 2.76%

Q: For `Clc1ccc(-c2cc(COc3ccc4ccccc4c3)no2)cc1`, which “hERG current change (%, negative = inhibition) at 10uM” value is on record?
A: 16%

Q: With `CC(=O)Nc1ccc(S(=O)(=O)NCc2nc(-c3ccccc3Cl)no2)cc1` as the compound, how does the “hERG current change (%, negative = inhibition) at 10uM” value read?
A: 13.1%

Q: `C=CCN1CCN(C(=O)c2oc3ccccc3c2C)CC1` was tested. Which “hERG current change (%, negative = inhibition) at 10uM” value did it give?
A: -0.434%

Q: `Cc1ccc(OCC(=O)N(Cc2ccco2)c2c(N)n(Cc3ccccc3)c(=O)[nH]c2=O)cc1C` was tested. Which “hERG current change (%, negative = inhibition) at 10uM” value did it give?
A: 6.85%

Q: `CC(NC(=O)c1cc2c(cc1Cl)N1CCCCCC1=NS2(=O)=O)c1ccc(S(N)(=O)=O)cc1` (centres unmarked) was tested. Which “hERG current change (%, negative = inhibition) at 10uM” value did it give?
A: 10.9%

Q: `CCCCn1c(O)c(C(CC)=NCCN2CCCCC2)c(=O)[nH]c1=O` was tested. Which “hERG current change (%, negative = inhibition) at 10uM” value did it give?
A: -53.6%

Q: `CCOc1ccccc1C(=O)NCc1ccco1` was tested. Which “hERG current change (%, negative = inhibition) at 10uM” value did it give?
A: -3.25%

Q: Which “hERG current change (%, negative = inhibition) at 10uM” value does the source give for `CNC(=O)c1c(NC(=O)c2ccc(S(=O)(=O)N3CCCc4ccccc43)cc2)sc2c1CCN(C)C2` here?
A: 4.53%

Q: For `O=C(NCc1ccccn1)c1coc(=O)c(Br)c1`, which “hERG current change (%, negative = inhibition) at 10uM” value is on record?
A: 14.3%

Q: Which “hERG current change (%, negative = inhibition) at 10uM” value does the source give for `CC1CCN(S(=O)(=O)c2cccc(C(=O)N(Cc3ccccc3)c3ccccn3)c2)CC1` here?
A: -17.4%

Q: With `COc1ccc2c(c1)sc(=N)n2C` as the compound, how does the “hERG current change (%, negative = inhibition) at 10uM” value read?
A: -22.4%

Q: How did the “hERG current change (%, negative = inhibition) at 10uM” value turn out when `Cc1ccc(Cl)c(OCC(=O)NN2CCN(C)CC2)c1` was run?
A: -9.03%

Q: `CC(C)CCn1c(=O)c(C(=O)NCc2ccc3c(c2)OCO3)c(O)c2ccccc21` was tested. Which “hERG current change (%, negative = inhibition) at 10uM” value did it give?
A: 17.4%

Q: With `Cc1ccc(C)n1NC(=O)c1ccc(Cl)cc1Cl` as the compound, how does the “hERG current change (%, negative = inhibition) at 10uM” value read?
A: -3.53%

Q: With `O=C(COC(=O)c1cc(=O)[nH]c2ccccc12)NC(=O)c1ccccc1` as the compound, how does the “hERG current change (%, negative = inhibition) at 10uM” value read?
A: 4.64%

Q: `COc1cc2c(cc1OC)C1(CCCC1)CNC2c1ccc([N+](=O)[O-])cc1.Cl` (centres unmarked) was tested. Which “hERG current change (%, negative = inhibition) at 10uM” value did it give?
A: -50%

Q: `CCc1cccc(C)c1NC(=O)C1C2CCC(O2)C1C(=O)O` (centres unmarked) was tested. Which “hERG current change (%, negative = inhibition) at 10uM” value did it give?
A: 18.8%

Q: How did the “hERG current change (%, negative = inhibition) at 10uM” value turn out when `COC(=O)c1ccc(C(=O)OC)c(NC(=O)COC(=O)C2CCC(C(C)(C)C)CC2)c1` (centres unmarked) was run?
A: 6.23%

Q: Which “hERG current change (%, negative = inhibition) at 10uM” value does the source give for `COc1cccc(/C=N/NC(=O)c2oc3nc(-c4ccccc4)cc(-c4ccco4)c3c2N)c1` here?
A: 3.07%

Q: Which “hERG current change (%, negative = inhibition) at 10uM” value does the source give for `CN1CCN(c2ccc(Cl)cc2NC(=O)c2cccc(S(=O)(=O)N(C)C)c2)CC1` here?
A: -36.9%

Q: With `COC(=O)C(N)Cc1ccc(O)cc1.Cl` (centres unmarked) as the compound, how does the “hERG current change (%, negative = inhibition) at 10uM” value read?
A: 15.9%

Q: With `N#C/C(=C\c1ccc(F)c(Cl)c1)S(=O)(=O)c1ccccn1` as the compound, how does the “hERG current change (%, negative = inhibition) at 10uM” value read?
A: -6.64%

Q: How did the “hERG current change (%, negative = inhibition) at 10uM” value turn out when `N#Cc1cnn2c(C(F)(F)F)cc(-c3ccccc3)nc12` was run?
A: 15.6%

Q: Which “hERG current change (%, negative = inhibition) at 10uM” value does the source give for `CCOC(=O)CSc1nnc(Cn2c(=O)sc3ccccc32)n1-c1ccccc1C` here?
A: -7.64%

Q: For `CC(C)NC(=O)c1onc(CSc2cccc(Cl)c2)c1C(=O)O`, which “hERG current change (%, negative = inhibition) at 10uM” value is on record?
A: 3.74%

Q: With `Nc1nc2ccccc2n1/N=C/c1ccc(-c2ccccc2)o1` as the compound, how does the “hERG current change (%, negative = inhibition) at 10uM” value read?
A: -11.8%

Q: For `CC(=O)c1cccc(NC(=O)c2ccccc2N(Cc2ccccc2)S(C)(=O)=O)c1`, which “hERG current change (%, negative = inhibition) at 10uM” value is on record?
A: 13.5%

Q: Which “hERG current change (%, negative = inhibition) at 10uM” value does the source give for `CC(C)c1ccc(S(=O)(=O)N2CCN(CC(O)CN3CCOCC3)CC2)cc1` (centres unmarked) here?
A: -22.8%

Q: Which “hERG current change (%, negative = inhibition) at 10uM” value does the source give for `CC(C)CCNc1ncnc2c1nnn2Cc1ccccc1Cl` here?
A: -2.06%

Q: For `CN(C)c1ccnc(C(=O)O)c1`, which “hERG current change (%, negative = inhibition) at 10uM” value is on record?
A: 29.1%

Q: `Cc1cc(NC(=O)c2noc3c2CCc2ccccc2-3)no1` was tested. Which “hERG current change (%, negative = inhibition) at 10uM” value did it give?
A: 11%

Q: `O=C(O)CCC(=O)Nc1ccc(Cc2ccc(NC(=O)CCC(=O)O)c(O)c2)cc1O` was tested. Which “hERG current change (%, negative = inhibition) at 10uM” value did it give?
A: -0.248%

Q: `Cc1ccc(S(=O)(=O)O)cc1.NC1CCN(c2nc3c(cc2F)c(=O)c(C(=O)O)cn3-c2ccc(F)cc2F)C1` (centres unmarked) was tested. Which “hERG current change (%, negative = inhibition) at 10uM” value did it give?
A: 18.5%

Q: How did the “hERG current change (%, negative = inhibition) at 10uM” value turn out when `CCOC(=O)N1CCN(C(=O)c2cc(-c3ccc(F)cc3)[nH]c2C)CC1` was run?
A: -72.3%

Q: `CN(CCCNC(=O)CCc1cn(C)c2ccccc12)C1CCCCC1` was tested. Which “hERG current change (%, negative = inhibition) at 10uM” value did it give?
A: -14.3%

Q: Which “hERG current change (%, negative = inhibition) at 10uM” value does the source give for `COC(=O)c1ccc(NC(=O)CN2CCC(NC(=O)c3ccco3)CC2)cc1` here?
A: -14.8%

Q: For `COc1ccc(OC)c(CN2CCN(C(=O)c3cccc(S(=O)(=O)Nc4ccc(C)cc4)c3)CC2)c1`, which “hERG current change (%, negative = inhibition) at 10uM” value is on record?
A: -34.6%

Q: Which “hERG current change (%, negative = inhibition) at 10uM” value does the source give for `COc1cc(NC(=O)c2cccc(C)c2)c(Cl)cc1[N+](=O)[O-]` here?
A: 8.78%

Q: How did the “hERG current change (%, negative = inhibition) at 10uM” value turn out when `CCCCN(CC)CCCNC(=O)CS(=O)(=O)Cc1nc(-c2cccc(OC)c2)oc1C` was run?
A: -28.4%

Q: For `Cl.O=C(/C=C/c1cccc(F)c1)NCCCn1ccnc1`, which “hERG current change (%, negative = inhibition) at 10uM” value is on record?
A: -22.6%

Q: Which “hERG current change (%, negative = inhibition) at 10uM” value does the source give for `Cn1cnnc1SCC(=O)NC1CCCC1` here?
A: 13%

Q: How did the “hERG current change (%, negative = inhibition) at 10uM” value turn out when `Cc1cc(-c2n[nH]c(=S)n2Cc2ccccc2)cs1` was run?
A: -0.571%

Q: How did the “hERG current change (%, negative = inhibition) at 10uM” value turn out when `COC(=O)C(NC(=O)c1ccccc1)(Nc1nccs1)C(F)(F)F` (centres unmarked) was run?
A: 7.77%

Q: How did the “hERG current change (%, negative = inhibition) at 10uM” value turn out when `Cc1cc(SCC(=O)c2ccc(O)c(O)c2)n2nc(C)c(-c3ccccc3)c2n1` was run?
A: 18.1%

Q: With `Cc1cccc(-c2nc3c(c(SCC(=O)N4CCOCC4)n2)COC(C)(C)C3)c1` as the compound, how does the “hERG current change (%, negative = inhibition) at 10uM” value read?
A: -10.7%

Q: With `O=C1CSC(c2ccc(Cl)cc2)N1C1CCCCC1` (centres unmarked) as the compound, how does the “hERG current change (%, negative = inhibition) at 10uM” value read?
A: -14.4%

Q: For `CN(C)S(=O)(=O)c1ccc(C(=O)N2CCCC2c2nc3ccccc3s2)cc1` (centres unmarked), which “hERG current change (%, negative = inhibition) at 10uM” value is on record?
A: 0.54%

Q: Which “hERG current change (%, negative = inhibition) at 10uM” value does the source give for `Cc1ccc(CNC(=O)CCS(=O)(=O)Cc2ccc(C)cc2)cc1` here?
A: 13.1%

Q: `CCCCOc1ccc(-c2c(C(=O)Nc3ccccc3)c(C)[nH]c(=S)c2C#N)cc1` was tested. Which “hERG current change (%, negative = inhibition) at 10uM” value did it give?
A: 12.1%

Q: With `CCOC(=O)c1cccc(NC(=O)CNS(=O)(=O)c2cccs2)c1` as the compound, how does the “hERG current change (%, negative = inhibition) at 10uM” value read?
A: -4.88%

Q: `Cc1ccc(NCc2ccc(C)s2)cc1` was tested. Which “hERG current change (%, negative = inhibition) at 10uM” value did it give?
A: 16.7%

Q: `CN(Cc1ccc(OC(F)F)cc1)C(=O)c1ccccc1Sc1ccccc1C#N` was tested. Which “hERG current change (%, negative = inhibition) at 10uM” value did it give?
A: -60.5%
